# Laboratory results as given in the supplement of paper PMC6531468.
# The list shows a part of the results. These are enrichments in a pooled selection; single values are uncertain. Each score is taken over the longer molecules that contain the sequence shown.
# Key:
# Assay in all cases: 6-mer SELEX enrichment z-score vs GST control; IMP3 is the RNA-binding protein IGF2BP3; higher = more enriched by binding
# IMP3 KH1-4 = settings: construct: KH1-4 (164-579); SELEX round: R4
# Description: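 SELEX-seq with GST-tagged IMP3 KH1-4 (Pro164-Lys579) and an N40 RNA pool, round 4. 6-mer z-score of sequence-tag enrichment normalised to the corresponding GST SELEX round; RNA k-mers written as DNA (T for U).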
# IMP3 RRM1-2 = settings: construct: RRM1-2 (1-163); SELEX round: R2
# IMP3 RRM1-2, sequence (chain, as listed by the source): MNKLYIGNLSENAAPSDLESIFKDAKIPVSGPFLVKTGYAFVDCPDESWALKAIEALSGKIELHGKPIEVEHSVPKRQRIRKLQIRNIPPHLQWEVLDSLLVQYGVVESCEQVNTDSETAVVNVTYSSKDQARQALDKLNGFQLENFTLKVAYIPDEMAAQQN
# Description: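 SELEX-seq with GST-tagged IMP3 RRM1-2 (Met1-Asn163) and an N40 RNA pool, round 2. 6-mer enrichment z-score normalised to GST SELEX. RNA written as DNA (T = U).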
# IMP3 full-length = IMP3 full-length (UniProt O00425); settings: construct: FL IMP3 (1-579); SELEX round: R4
# UniProt O00425, sequence (O00425 whole entry): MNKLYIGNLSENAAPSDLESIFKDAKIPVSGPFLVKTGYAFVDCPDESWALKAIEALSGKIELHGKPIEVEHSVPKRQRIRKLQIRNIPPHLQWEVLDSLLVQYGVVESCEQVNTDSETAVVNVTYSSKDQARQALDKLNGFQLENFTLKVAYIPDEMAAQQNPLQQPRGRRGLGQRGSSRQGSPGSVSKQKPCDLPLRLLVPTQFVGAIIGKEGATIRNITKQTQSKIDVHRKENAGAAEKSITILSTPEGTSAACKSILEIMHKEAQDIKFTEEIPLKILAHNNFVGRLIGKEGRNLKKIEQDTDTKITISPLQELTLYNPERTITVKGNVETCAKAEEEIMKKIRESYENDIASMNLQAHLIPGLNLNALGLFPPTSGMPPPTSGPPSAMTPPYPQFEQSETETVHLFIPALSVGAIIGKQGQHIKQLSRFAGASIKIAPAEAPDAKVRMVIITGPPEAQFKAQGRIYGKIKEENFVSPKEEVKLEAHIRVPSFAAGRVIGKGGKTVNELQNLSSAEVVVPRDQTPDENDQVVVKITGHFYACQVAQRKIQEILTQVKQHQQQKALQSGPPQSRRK
# Description: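 SELEX-seq with GST-tagged full-length IMP3 and an N40 RNA pool, round 4. Each 6-mer is scored as an enrichment z-score of sequence tags containing it, normalised to the matching GST SELEX round. RNA written as DNA (T = U).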
# IMP3 KH1-2 = settings: construct: KH1-2 (164-376); SELEX round: R4
# IMP3 KH1-2, sequence (chain, as listed by the source): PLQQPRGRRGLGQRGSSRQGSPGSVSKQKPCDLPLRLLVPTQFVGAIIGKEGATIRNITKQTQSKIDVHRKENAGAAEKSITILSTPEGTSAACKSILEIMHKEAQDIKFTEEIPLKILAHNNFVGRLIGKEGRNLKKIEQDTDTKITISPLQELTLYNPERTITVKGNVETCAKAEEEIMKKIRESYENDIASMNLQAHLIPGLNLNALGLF
# Description: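 SELEX-seq with GST-tagged IMP3 KH1-2 (Pro164-Phe376) and an N40 RNA pool, round 4 (stringent 300/600 mM KCl washes). 6-mer z-score of sequence-tag enrichment normalised to the corresponding GST SELEX round; RNA k-mers written as DNA (T for U).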
# IMP3 KH3-4 = settings: construct: KH3-4 (377-579); SELEX round: R4
# IMP3 KH3-4, sequence (chain, as listed by the source): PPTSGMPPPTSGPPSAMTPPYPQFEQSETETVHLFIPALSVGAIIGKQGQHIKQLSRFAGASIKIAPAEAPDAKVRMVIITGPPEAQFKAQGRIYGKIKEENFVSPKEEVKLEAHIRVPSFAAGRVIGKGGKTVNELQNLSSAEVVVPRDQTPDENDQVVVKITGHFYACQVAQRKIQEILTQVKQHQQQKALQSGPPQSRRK
# Description: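 SELEX-seq with GST-tagged IMP3 KH3-4 (Pro377-Lys579) and an N40 RNA pool, round 4. 6-mer z-score of sequence-tag enrichment normalised to the corresponding GST SELEX round; RNA k-mers written as DNA (T for U).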
# IMP3 KH1-4, sequence (chain, as listed by the source): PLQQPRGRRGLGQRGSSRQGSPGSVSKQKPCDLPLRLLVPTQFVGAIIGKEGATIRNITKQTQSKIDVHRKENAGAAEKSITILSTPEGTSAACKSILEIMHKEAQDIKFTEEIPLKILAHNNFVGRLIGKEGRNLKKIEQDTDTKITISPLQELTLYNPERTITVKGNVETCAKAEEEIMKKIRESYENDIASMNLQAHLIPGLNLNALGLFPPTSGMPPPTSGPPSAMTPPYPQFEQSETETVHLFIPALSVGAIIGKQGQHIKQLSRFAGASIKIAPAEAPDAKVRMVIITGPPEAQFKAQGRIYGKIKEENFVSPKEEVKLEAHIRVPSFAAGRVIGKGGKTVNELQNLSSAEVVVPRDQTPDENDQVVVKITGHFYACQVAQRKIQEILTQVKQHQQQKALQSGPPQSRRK
Sequence,6-mer SELEX enrichment z-score (IMP3 KH1-4),6-mer SELEX enrichment z-score (IMP3 RRM1-2),6-mer SELEX enrichment z-score (IMP3 full-length),6-mer SELEX enrichment z-score (IMP3 KH1-2),6-mer SELEX enrichment z-score (IMP3 KH3-4)
TACGCT,0.344,0.046,0.04,0.338,0.264
CACTGA,0.58,-0.039,0.29,0.411,0.103
ACAAGC,-0.861,0.558,-0.083,-0.874,-1.03
AATGAC,0.645,-1.33,-0.77,0.384,0.98
CGATGC,-1.29,-0.497,-0.705,-1.24,-1.3
GCCCGT,-0.583,-0.293,-0.052,-0.44,-0.689
ATTTGT,0.656,0.299,0.048,0.419,0.785
CATGGC,0.93,1.11,1.45,0.766,0.696
CCCCCC,0.971,-0.631,-0.358,2.15,-0.037
ATTCGA,-0.703,-0.235,-0.413,-0.611,-0.483
TTAAGA,0.266,-0.576,-0.561,0.122,1.01
GTTCAC,0.166,0.495,0.409,0.052,-0.114
CCCCAC,-0.412,-0.531,-0.593,0.01,-1.5
GGGGTG,0.67,0.323,0.472,1.01,0.938
AGAGGC,1.26,-0.169,1.07,1.02,1.32
TATAAA,1.32,-0.829,-0.277,1.25,2.55
GCTGGA,0.232,-0.187,0.165,0.211,0.181
ATGGTG,0.542,0.218,0.198,0.4,0.547
ATGGAA,1.08,-0.67,-0.235,0.567,1.17
CCTAAG,-0.976,-0.408,-1.04,-0.925,-0.969
